Experimental data reported in US20230203052A1, “ACYCLIC CUCURBITURILS, METHODS OF MAKING SAME, AND USES THEREOF” (University of Maryland, College Park, priority 2020, published 2023).

Columns and labels:
[1] = comparison with 1·19 and 1·20; cited from earlier work
[2] = test system: Hep G2 cells; experiment: AK (Toxilight) cell death assay, Hep G2; type: cell-based, human; conditions: HepG2, 24 h incubation, up to a concentration of 1 mM
Protocol: (§1) To test the Cytotoxicity and Cell Viability of the above compounds we used two different assays: an MTS (CellTiter 96 AQueous Kit®) assay that measures cellular metabolism, and the AK (Toxilight® BioAssay Kit) assay that measures cell death through release of the cytosolic enzyme adenylate kinase into the supernatant. Both assays were performed with two different cell lines. HEK293 and Hep G2 cells, are frequently used in drug toxicity studies. HEK293, a human kidney cell line, is used to evaluate the effect of the drug on the renal system and Hep G2, a human hepatocyte cell line, is used to assess the response of liver cells where drugs are metabolized. The MTS and AK assays for both cell lines were conducted after 24 h of incubation with the compounds at concentrations of 0.01 mM, 0.03 mM, 0.1 mM, 0.3 mM, and 1 mM. Eight technical replicates were designated for untreated cells and four technical replicates were designated for the cells treated with each compound and staurosporine (apoptosis inducer).
(§2) The collected absorbance and relative luminescence data were normalized to percent cell viability (MTS) and percent cell death (AK) using equations 1 and 2:
(§3) % cell death=(RLU samples/Average RLU Distilled water)×100 Eq. 2: […]

[3] = Aqueous solubility; conditions: host 1, water
[4] = test system: HEK293 cells; experiment: MTS (CellTiter 96 AQueous) cell viability assay, HEK293; type: cell-based, human; conditions: HEK293, 24 h incubation, up to a concentration of 0.3 mM
Protocol: as §1, §2
(§4) % cell viability=(Abs sample/Average Abs UT)×100 Eq. 1: […]

[5] = test system: Hep G2 cells; experiment: MTS (CellTiter 96 AQueous) cell viability assay, Hep G2; type: cell-based, human; conditions: HepG2, 24 h incubation, up to a concentration of 0.3 mM
Protocol: as §1, §2, §4

[6] = target: hERG ion channel (Homo sapiens, UniProt Q12809); experiment: hERG ion channel inhibition, QPatch HTX patch clamp in HEK-293
[7] = test system: HEK293 cells; experiment: AK (Toxilight) cell death assay, HEK293; type: cell-based, human; conditions: HEK293, 24 h incubation, up to a concentration of 1 mM
Protocol: as §1, §2, §3

[8] = ITC binding of guests to host 1 (direct or competitive titration); conditions: 20 mM sodium phosphate buffered H2O, pH 7.4, 25° C.; direct or competitive ITC per footnote
[9] = taken from the literature; cited from earlier work

hERG ion channel, sequence (Q12809 whole entry): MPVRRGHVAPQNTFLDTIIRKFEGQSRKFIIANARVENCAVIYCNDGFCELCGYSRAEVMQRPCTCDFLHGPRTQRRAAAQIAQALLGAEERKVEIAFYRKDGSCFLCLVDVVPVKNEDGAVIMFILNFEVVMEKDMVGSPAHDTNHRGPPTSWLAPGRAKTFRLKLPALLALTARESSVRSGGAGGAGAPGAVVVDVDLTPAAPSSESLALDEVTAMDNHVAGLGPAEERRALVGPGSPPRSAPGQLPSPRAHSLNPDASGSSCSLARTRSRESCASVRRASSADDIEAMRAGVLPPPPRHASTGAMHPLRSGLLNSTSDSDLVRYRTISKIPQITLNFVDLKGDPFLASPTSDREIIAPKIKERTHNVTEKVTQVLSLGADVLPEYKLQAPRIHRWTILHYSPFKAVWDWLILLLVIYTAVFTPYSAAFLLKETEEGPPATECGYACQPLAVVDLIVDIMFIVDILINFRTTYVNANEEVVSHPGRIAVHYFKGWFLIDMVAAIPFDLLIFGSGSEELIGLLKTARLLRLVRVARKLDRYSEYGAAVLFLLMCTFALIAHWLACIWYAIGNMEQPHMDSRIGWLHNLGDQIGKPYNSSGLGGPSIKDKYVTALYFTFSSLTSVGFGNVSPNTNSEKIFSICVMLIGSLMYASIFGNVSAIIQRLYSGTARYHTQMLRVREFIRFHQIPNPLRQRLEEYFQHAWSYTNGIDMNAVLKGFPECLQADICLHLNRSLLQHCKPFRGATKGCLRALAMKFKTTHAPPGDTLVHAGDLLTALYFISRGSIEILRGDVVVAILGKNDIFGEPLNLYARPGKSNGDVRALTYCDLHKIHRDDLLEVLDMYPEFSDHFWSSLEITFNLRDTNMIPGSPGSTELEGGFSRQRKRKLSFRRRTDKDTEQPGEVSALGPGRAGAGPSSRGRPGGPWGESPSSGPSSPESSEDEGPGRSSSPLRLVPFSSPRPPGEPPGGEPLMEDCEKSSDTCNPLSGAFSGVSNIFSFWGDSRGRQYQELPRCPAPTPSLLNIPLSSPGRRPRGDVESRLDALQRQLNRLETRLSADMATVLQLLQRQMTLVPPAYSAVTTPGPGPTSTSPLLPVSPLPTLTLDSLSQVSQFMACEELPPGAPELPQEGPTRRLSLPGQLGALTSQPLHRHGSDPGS

## CC(=O)O[C@H]1C[C@@H]2CC[C@@H]3[C@H](CC[C@@]4(C)[C@H]3C[C@H]([N+]3(C)CCCCC3)[C@@H]4OC(C)=O)[C@@]2(C)C[C@@H]1N1CCCCC1 [guest 20, vecuronium]
[1]
  Affinity (Ka) of M2·guest complex: 1.6e+09 M⁻¹

## C=CC[N+]1([C@H]2C[C@H]3[C@@H]4CC[C@H]5C[C@H](O)[C@@H](N6CCOCC6)C[C@]5(C)[C@H]4CC[C@]3(C)[C@H]2OC(C)=O)CCCC1 [guest 19, rocuronium]
[1]
  Affinity (Ka) of M2·guest complex: 3.4e+09 M⁻¹

## C[C@]12N3Cc4c(OS(=O)(=O)[O-])ccc(OS(=O)(=O)[O-])c4CN1C(=O)N1CN4C(=O)N5CN6C(=O)N7CN8C(=O)N9Cc%10c(OS(=O)(=O)[O-])ccc(OS(=O)(=O)[O-])c%10CN%10C(=O)N(CN%11C(=O)N(CN%12C(=O)N(CN(C3=O)[C@]12C)[C@@H]4[C@H]%125)[C@@H]6[C@H]%117)[C@]8(C)[C@@]9%10C.[Na+].[Na+].[Na+].[Na+] [host 1]
[2]
  Cytotoxicity (cell death): low cytotoxicity
[3]
  Solubility in water: > 40 mM and 40 mM
[4]
  Cell tolerance (cell viability): high cell tolerance
[5]
  Cell tolerance (cell viability): high cell tolerance
[6]; 0.008 μM to 25 μM, listed as M0
  hERG ion channel inhibition (in words): does not inhibit the hERG channel
[6]; read-out: hERG IC50, six concentrations 0.008 μM to 25 μM, HEK-293 expressing hERG
  IC50: > 25 µM
[7]
  Cytotoxicity (cell death): low cytotoxicity

## COc1ccc(C[C@@H]2c3cc(OC)c(OC)cc3CC[N@+]2(C)CCC(=O)OCCCCCOC(=O)CC[N@@+]2(C)CCc3cc(OC)c(OC)cc3[C@H]2Cc2ccc(OC)c(OC)c2)cc1OC [guest 21, cisatracurium]
[8]
  Ka of host·guest complex of 1: 532000 M⁻¹
[9]
  Ka of host·guest complex of M1: 970000 M⁻¹

Several values for one entry are separate records, joined by “and”; a condition that tells them apart may be missing. Identical values can stand only once.
